Results published in PubChem BioAssay AID588579 (National Center for Advancing Translational Sciences (NCATS), 2011).
The campaign covered roughly 400,000 compounds. About 2,200 (0.55%) were called active. This list was built around the results that the source calls inconclusive (neither active nor inactive); the mix of calls is not that of the screen. The call rests on the fitted dose curve; in most records, active means well fitted inhibition curve with a large enough effect; inconclusive means small, poorly fitted or top-dose-only effect, or another doubt; inactive means no such curve, though single readings can be large or run the other way. Potencies of inconclusive entries are doubtful fits and often do not repeat.

The compounds below were run against DNA polymerase kappa (Homo sapiens) (UniProt Q9UBT6) (assay: qHTS for Inhibitors of Polymerase Kappa). Conditions: purified Pol kappa, fluorescent DNA synthesis assay, 10 min; series mostly up to 107 µM.
Chain of UniProt Q9UBT6 (Q9UBT6 whole entry, looked up): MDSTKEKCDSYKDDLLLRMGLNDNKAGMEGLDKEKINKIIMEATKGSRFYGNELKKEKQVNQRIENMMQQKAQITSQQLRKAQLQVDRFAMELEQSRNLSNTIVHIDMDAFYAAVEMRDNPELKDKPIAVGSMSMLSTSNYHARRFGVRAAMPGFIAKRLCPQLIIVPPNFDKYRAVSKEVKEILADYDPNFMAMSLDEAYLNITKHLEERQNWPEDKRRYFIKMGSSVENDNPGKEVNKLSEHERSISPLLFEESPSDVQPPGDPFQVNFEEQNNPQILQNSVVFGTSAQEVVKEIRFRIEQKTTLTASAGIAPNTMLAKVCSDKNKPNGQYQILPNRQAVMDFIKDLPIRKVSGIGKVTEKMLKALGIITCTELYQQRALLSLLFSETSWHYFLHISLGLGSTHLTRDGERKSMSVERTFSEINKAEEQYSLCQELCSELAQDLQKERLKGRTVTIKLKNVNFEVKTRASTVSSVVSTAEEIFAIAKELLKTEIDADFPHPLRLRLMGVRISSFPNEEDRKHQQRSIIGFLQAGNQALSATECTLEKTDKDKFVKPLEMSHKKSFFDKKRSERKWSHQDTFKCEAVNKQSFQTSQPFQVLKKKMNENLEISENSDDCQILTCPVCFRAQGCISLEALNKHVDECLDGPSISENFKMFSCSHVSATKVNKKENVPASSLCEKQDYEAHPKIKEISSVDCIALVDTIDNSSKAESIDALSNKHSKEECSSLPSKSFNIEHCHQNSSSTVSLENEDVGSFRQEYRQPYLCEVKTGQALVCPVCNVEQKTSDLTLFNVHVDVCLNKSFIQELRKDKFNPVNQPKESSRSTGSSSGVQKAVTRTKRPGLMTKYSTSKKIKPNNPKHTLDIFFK
Method in brief: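 10 nM Pol kappa was preincubated with compounds for 15 min at room temperature. Reaction started with 50 nM (final) substrate. Fluorescence read kinetically at 0 and 10 min.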
Potency means the concentration at half of the fitted maximal effect; tags describe the fitted curve by direction and shape.

Compound | Potency
CC(C)(C)c1ccc(-c2nnc3sc(-c4ccccn4)nn23)cc1 | inconclusive: 35.5 µM [inhibitor, single point]
N=c1c(C(=O)NCc2ccc(F)cc2)cc2c(=O)n3ccccc3nc2n1Cc1ccco1 | inconclusive: 100 µM [inhibitor, partial curve, poor fit]
CN(C(=O)COC(=O)c1cc(-c2ccco2)nc2ccccc12)C1CCS(=O)(=O)C1 (stereo unspecified) | active: 20 µM
Cc1cc2c(SCC(=O)Nc3cccc(O)c3)ncnc2s1 | active: 89.1 µM
O=C(CSc1nc(O)cc(=O)n1-c1ccccc1)Nc1nc2ccccc2s1 | inconclusive: 79.4 µM [inhibitor, partial curve, poor fit]
Cc1ccc(C)n1-c1sccc1C(=O)O | active: 0.891 µM
CC(C)(C)NC(=O)c1ccc(NC(=O)C2COc3ccccc3O2)cc1 (stereo unspecified) | inactive
Cc1c(C(N)=O)nnn1-c1ccc(Br)cc1 | inactive
C#CCOCCOCCOCCNc1nc(N2CCN(C(=O)Cn3cc(CC(C)O)nn3)CC2)nc(N2CCN(C(=O)[C@H](C)n3cc(CCCN=C(N)N)nn3)CC2)n1 (stereo partly specified) | inactive
CCCCCCNC(=O)CCc1nc2cccnc2n1Cc1ccc(OC)cc1 | inconclusive: 89.1 µM [inhibitor, partial curve, poor fit]
O=C(NC1CCCCC1)C(c1ccncc1)N(Cc1ccc2c(c1)OCO2)C(=O)C(F)(F)F (stereo unspecified) | active: 79.4 µM
O=C(/C=C/c1ccc(Br)o1)NCc1ccccc1 | inconclusive: 39.8 µM [inhibitor, partial curve, poor fit]
COc1cc(/C=C/c2nc3ccccc3c(=O)[nH]2)cc(Cl)c1O | inactive
CC/C=C\C/C=C\C/C=C\C/C=C\C/C=C\C/C=C\CCC(=O)O | inconclusive: 10 µM [inhibitor, partial curve, poor fit]
COc1ccc2c(c1OC)C(=O)OC2c1ccc(O)cc1 (stereo unspecified) | inactive
COC(=O)c1cc(S(=O)(=O)N2CCOCC2)c(Cl)cc1N1CCOCC1 | inactive
COc1ccc(-c2nn(-c3ccccc3)cc2/C=C(\CC(=O)O)c2nc3ccccc3s2)cc1OC | inconclusive: 89.1 µM [inhibitor, single point]
Cc1cccc(-c2cc3nc(C)cc(C)n3n2)c1 | inactive
O=C1N=C(N2CCOCC2)S/C1=C\c1ccc(OS(=O)(=O)c2ccccc2)cc1 | inactive
CCOC(=O)c1c(C)oc2nc(C)nc(NCCCN3CCN(c4cccc(C)c4)C(C)C3)c12 (stereo unspecified) | inconclusive: 89.1 µM [inhibitor, partial curve, poor fit]
Cc1cc(=O)[nH]c(SCC(=O)Nc2nc3ccccc3s2)n1 | inactive
